{"source": "the supplement of paper PMC11417369", "note": "This is one part of the list.", "data": [{"system": "PfAP2-HC AP2 domain (GST-tagged)", "assay": "gcPBM binding intensity (ln(normalized median fluorescence intensity)); higher = stronger DNA binding", "procedure,_shortened": "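Using an Agilent 4 × 180k array, primer-extended double-stranded 36-bp intergenic genomic probes and negative controls were exposed for 1 h to GST-fused P. falciparum DNA-binding domains expressed in E. coli. Binding was carried out in 1× PBS with 1% milk, 0.2 mg/ml BSA, 0.5% salmon testes DNA and 0.03% Triton X-100, and protein was detected with Alexa488 anti-GST antibody and a 488 nm scan. Binding intensity is the highest Masliner-normalised natural-log median intensity across replicate spots of either probe orientation.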", "values": [{"sequence": "AAATCACCTTAAGAACGTACAAACAGAAAAAAATTA [XGTACX_site4623]", "gcPBM binding intensity (ln)": 9.72}, {"sequence": "TTTATTATATTTATATGTACTTATATAATATATGCA [XGTACX_site1906]", "gcPBM binding intensity (ln)": 9.47}, {"sequence": "ATATGTATTAAGTGTACACATATAATGTATTTTGTT [CACACA_site4177]", "gcPBM binding intensity (ln)": 9.85}, {"sequence": "TCATAATGAAAACAAGCACACATACATAAAATAAAA [CACACA_site9069]", "gcPBM binding intensity (ln)": 10.4}, {"sequence": "TTATTTACCATCTCTACACACAAAAATTGATGTAGA [CACACA_site2811]", "gcPBM binding intensity (ln)": 9.78}, {"sequence": "TAAATTATATTATGCACACTTAAAAATATATTTAAC [CACACA_site3512]", "gcPBM binding intensity (ln)": 9.6}, {"sequence": "GTAAGAAAGAAAGGAAGTACGTAAGAAAGTAAGAAC [XGTACX_site1239]", "gcPBM binding intensity (ln)": 10.4}, {"sequence": "GTGTGGTTACAGACACGAACACATTTTTTAAATATT [CACACA_negctrl_site83]", "gcPBM binding intensity (ln)": 9.58}, {"sequence": "TATATATATTATATAGTGCATTGAAGAAGGGGATTT", "gcPBM binding intensity (ln)": 9.64}, {"sequence": "TTTTTTTTTCTGTGAGTGCATGTAATAAAATAAATT [GTGCAC_site9740]", "gcPBM binding intensity (ln)": 9.34}, {"sequence": "ATATATTTATAATACACATGCAATGATATAATATAT [TGCATGCA_site20]", "gcPBM binding intensity (ln)": 9.66}, {"sequence": "CATATATACATATATACACACATATATATATATATA [CACACA_site645]", "gcPBM binding intensity (ln)": 9.78}, {"sequence": "TATTCCTTATTATAATTCTTAAATAAAAAAAAAAAA [TGCATGCA_negctrl_site45]", "gcPBM binding intensity (ln)": 8.76}, {"sequence": "CCCATTATTGTTGGGGGTACAATTTTGAATATATAT [XGTACX_site2227]", "gcPBM binding intensity (ln)": 9.68}, {"sequence": "TAGGATTTTTAGTTTATTGTAACTATTATTTTATTT [CACACA_negctrl_site829]", "gcPBM binding intensity (ln)": 9.87}, {"sequence": "ATATATAAACTGAAGGGTACAATGAAAAAAGAACTT [XGTACX_site7219]", "gcPBM binding intensity (ln)": 9.77}, {"sequence": "CATATTTGTTGACACACACACATATTTATATAAATA [CACACA_site7648]", "gcPBM binding intensity (ln)": 10.3}, {"sequence": "TTTATATGTTTAAAATGTACATGTGGTAAAAATTTT [XGTACX_site5907]", "gcPBM binding intensity (ln)": 9.38}, {"sequence": "GGGAGGATATTACACAGTACCCAGAAAATCTACGGA [XGTACX_site2551]", "gcPBM binding intensity (ln)": 9.41}, {"sequence": "AAACATGTATTTTATTGTACACATTCATAAATCACA [XGTACX_site1420]", "gcPBM binding intensity (ln)": 9.66}, {"sequence": "TTATAATCTTATATATGTACATATATATATTATTAT [XGTACX_site7780]", "gcPBM binding intensity (ln)": 9.73}, {"sequence": "TACATGTATGTAATATGTTTTATTTTTTTCATCTCT [XGTACX_negctrl_site79]", "gcPBM binding intensity (ln)": 9.62}, {"sequence": "AAATATATGAATAAATGTACGAAATGAATGGATGAA [XGTACX_site7108]", "gcPBM binding intensity (ln)": 9.8}, {"sequence": "CATTCAAACAAAAAAAGTACTCATCACATAATATAT [XGTACX_site1251]", "gcPBM binding intensity (ln)": 9.68}, {"sequence": "GAAATGTACAAATACGTACACACATATATATATATA [CACACA_site1541]", "gcPBM binding intensity (ln)": 9.78}, {"sequence": "AAAAAAAAAAAAAAACTTACGATTTTAAAAAGATGG [GTGCAC_negctrl_site291]", "gcPBM binding intensity (ln)": 9.38}, {"sequence": "TTTATATTGTTTTATTGTACATATATATTTATACAT [XGTACX_site6821]", "gcPBM binding intensity (ln)": 9.98}, {"sequence": "GCAAAATATTTAAAATAATATATGTGTATATTTTTA [GTGCAC_negctrl_site149]", "gcPBM binding intensity (ln)": 9.49}, {"sequence": "TTAATTAGAAATCATACACACATATATATATATATA [CACACA_site173]", "gcPBM binding intensity (ln)": 9.78}, {"sequence": "TTATATTATATATATGTGCACATTTTTAAACTTGGA", "gcPBM binding intensity (ln)": 9.62}, {"sequence": "ACAAATAAAAATATTACACACACTATTATATTGATA [CACACA_site1494]", "gcPBM binding intensity (ln)": 10.3}, {"sequence": "GGAAGATGAAAAATAAAGCATGTGCTGTACAAACGA [CACACA_negctrl_site1625]", "gcPBM binding intensity (ln)": 9.75}, {"sequence": "AAATATTTATATGTTACACACTGTTGATAATTTTCT [CACACA_site1347]", "gcPBM binding intensity (ln)": 9.77}, {"sequence": "TTCAAATTGTTTATATGTACTTATAAAAATTGTCTG [XGTACX_site977]", "gcPBM binding intensity (ln)": 9.48}, {"sequence": "AGACCTTTAATTTGTGTGCACATAATTAGTGTACAT [GTGCAC_site9434]", "gcPBM binding intensity (ln)": 10.3}, {"sequence": "ATTAAAAAAAAAAAAAGTACTTATAATTATACTCGT [XGTACX_site4852]", "gcPBM binding intensity (ln)": 9.56}, {"sequence": "ATTTTTGTAATTATTTGTACACATTTATTTATGTGT [XGTACX_site1864]", "gcPBM binding intensity (ln)": 10.1}, {"sequence": "AAAAATATTTTGGTTTGTACATATATTTTTACAATA [XGTACX_site8691]", "gcPBM binding intensity (ln)": 9.6}, {"sequence": "ACTTATTTCGATATGTGTACTTAATATATATATTTA [XGTACX_site6616]", "gcPBM binding intensity (ln)": 9.82}, {"sequence": "TATTCTATATAATAATGTACGTGATTTAAATTTTCA [XGTACX_site6650]", "gcPBM binding intensity (ln)": 9.43}, {"sequence": "TGACCGTTTTAAGAGTGTACAAAAAAAAAAAAAAAA [XGTACX_site4141]", "gcPBM binding intensity (ln)": 8.97}, {"sequence": "AGAAGTTTAAAAAGCACACAAAAAAAAAAAAAAAGA [CACACA_site3309]", "gcPBM binding intensity (ln)": 9.73}, {"sequence": "AAATAAAATAAAAACATGCACACTTTATTTTTTTTA [CACACA_site2800]", "gcPBM binding intensity (ln)": 9.62}, {"sequence": "AAAATCGTGTTCTGAATACACACTAATACAAAGTTG [CACACA_site3985]", "gcPBM binding intensity (ln)": 9.64}]}]}
